Measured values reported in PubChem BioAssay AID1508624 (National Center for Advancing Translational Sciences (NCATS), 2021).
In all, about 48,000 compounds went through this assay and about 120 (0.25%) were called active. Another 4% or so got no clear call; they are omitted. Calls come from the whole dose curve; as a rule, active = well fitted activation curve with a large enough effect; inconclusive = small, poorly fitted or top-dose-only effect, or another doubt; inactive = no such curve, though single readings can be large or run the other way. The list shows a part of the results.

Test: Primary qHTS for Identification of Small Molecule Activators of Huntingtin-Antisense Promoter Activity; note: nearly all actives have a fitted effect of over 55% in size
Conditions: HEK293 HTT-AS promoter firefly luciferase reporter (activity 0% = vehicle and -100% = no light), 24 h; series mostly up to 57.5 µM; activity change, positive = activation: at the top concentration
Summary of the method: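 HEK293 cells carrying firefly luciferase reporters were seeded at 2,500 per well in Opti-MEM and cultured for 24 h. They were then treated with compounds at up to 57.5 uM final for 24 h at 37 degrees C before Dual-Glo luminescence readout.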

SMILES	activity change, positive = activation
Cc1ccc(Nc2sc(C(=O)c3ccccc3)c(N)c2S(=O)(=O)c2ccccc2)cc1Cl	inactive: -12.9%
CCc1ccc(CNC(=O)Cn2nc(-c3ccc(C)cc3)ccc2=O)cc1	inactive: -6.78%
COc1ccccc1N1CCN(C(=O)CCS(=O)(=O)c2ccc3c(c2)oc(=O)n3C)CC1	inactive: -3.72%
CC1CCCN(CCCNC(=O)c2ccc3c(c2)N(Cc2ccc(Cl)cc2)C(=O)c2ccccc2S3(=O)=O)C1 (configuration not stated)	inactive: -26.7%
Cc1cc(OC(C)C(=O)N(Cc2ccc(N(C)C)cc2)Cc2ccco2)ccc1Cl (configuration not stated)	inactive: -22.8%
Cc1ccccc1C(=O)Nc1cccc(OCc2cc(=O)n3cccc(C)c3n2)c1	inactive: -28.9%
Cc1ccc(C)c(NC(=O)Cn2cc(S(=O)(=O)Cc3cccc(Cl)c3)c3ccccc32)c1	inactive: -17.2%
CCc1ccc(NC(=O)CN2C(=O)CSc3ccc(S(=O)(=O)N(C)C)cc32)cc1	inactive: 1.73%
O=C(NCc1ccccc1)c1ccc2c(c1)CCN2S(=O)(=O)c1ccc(Cl)cc1	inactive: -12.1%
CCn1cc(C(=O)NCCc2ccc(OC)c(OC)c2)c(=O)c2cc(S(=O)(=O)N(C)C3CCCCC3)ccc21	inactive: -36.1%
CC(=O)O[C@]1(C(C)=O)CC[C@H]2[C@@H]3C=C(Cl)C4=CC(=O)CC[C@]4(C)[C@H]3CC[C@@]21C	inactive: -17.9%
COc1ccc(-c2noc(CN(C(=O)C(C)Oc3ccc(C)cc3)C(C)C)n2)cc1 (configuration not stated)	inactive: -22.1%
COc1ccc2cc3c(N)nn(C(=O)c4ccccc4Cl)c3nc2c1	inactive: -27.6%
CCOc1ccc(NC(=O)N2CCN(c3ccc(Cl)c(Cl)c3)CC2)cc1	inactive: -22.9%
COc1ccc(CNC(=O)c2ccc(-c3nc(CSc4ccc(C)cc4)c(C)o3)cc2)c(OC)c1	inactive: -6.36%
Cc1cccc(CCNC(=O)c2cc3c(s2)-c2c(C)cccc2OC3)c1	inactive: -14.2%
Cc1ccc2c(c1)N(C(=O)Nc1cccc3c1CCCC3)CCO2	inactive: -8.3%
CCCN1CCN(C(=O)Cn2c(-c3cccs3)cc3cc(F)ccc32)CC1	inactive: -8.7%
CCOC(=O)c1c(NC(=O)CSc2cn(CCNC(=O)c3ccc(OC)cc3)c3ccccc23)sc2c1CCCC2	inactive: -56.9%
COc1ccc(C2c3c(n(C)c4ccccc34)C(=O)N2CC(=O)Nc2cccc(Cl)c2)cc1 (configuration not stated)	inactive: -27.1%
COc1ccc(-c2noc(CSc3nnc(C)n3-c3cccc(C)c3)n2)cc1	inactive: -31.1%
COc1cc(C(=O)NCCc2csc(-c3ccc(Cl)cc3)n2)cc(OC)c1OC	inactive: -25.1%
COc1ccc(O)c(C2=Nc3ccccc3N=C(c3ccccc3)C2)c1	inactive: -5.52%
CCOC(=O)c1nc(Nc2ccc(C(=O)OC(C)C)cc2)c2ccccc2n1	inactive: 2.86%

SMILES	activity change, positive = activation
COc1ccccc1NC(=O)c1oc2ccccc2c1NC(=O)Cc1ccccc1	inactive: -5.24%
O=C(CN1C(=O)CC(c2ccccc2)=Nc2ccccc21)Nc1ccc(Br)cc1	inactive: -20.1%
CNC(=O)c1ccc2c(c1)N(Cc1cc(C)ccc1C)C(=O)c1ccccc1S2	inactive: -30.3%
Cc1nn(C)c2c1c(-c1ccccc1)cc(=O)n2CC(=O)NC(C)c1ccccc1 (configuration not stated)	inactive: -26.1%
CCCOc1ccc(C2c3c(-c4c(C)cc(C)cc4O)n[nH]c3C(=O)N2CCO)cc1 (configuration not stated)	inactive: -27.5%
Cc1ccc(Cl)cc1NC(=O)c1sc(-n2nc(C)c(Cc3ccc4c(c3)OCO4)c2C)nc1C	inactive: -6.3%
CCN1CCOC(=O)C1CC(=O)Nc1ccc(Br)cc1 (configuration not stated)	inactive: -22.6%
CCOc1ccc(-c2cc3nc(C4CCN(C(=O)OC(C)(C)C)CC4)c(C(=O)Nc4cc(OC)ccc4OC)cn3n2)cc1	inactive: -2.44%
O=C(Cn1c(=O)n(Cc2ccccc2)c(=O)c2sc3ccccc3c21)Nc1ccccc1	inactive: -14.6%
CCCCCn1c(CN2CCN(c3ccc(OC)cc3)CC2)nc2c1c(=O)[nH]c(=O)n2C	inactive: -18.2%
Cc1ccc(Cl)cc1NC(=O)Nc1cccc(OCc2cc(=O)n3ccccc3n2)c1	inactive: 12.5%
COc1ccc(-n2c(-c3ccco3)nc3c(cnn3-c3ccccc3Cl)c2=O)cc1	inactive: -30.6%
O=C(CSc1cn(CC(=O)N2CCCCC2)c2ccccc12)Nc1ccccc1	inactive: -3.02%
COc1ccc(OC)c(C2=NS(=O)(=O)N(C)C(C(=O)Nc3ccc(F)cc3F)=C2)c1	inactive: -37.2%
N#Cc1nc(-c2ccc(COc3ccc(Cl)cc3)o2)oc1N1CCC(C(N)=O)CC1	inactive: -40.3%
Cc1ccc(C)c(NC(=O)C2CCCN(c3ncnc4onc(C)c34)C2)c1 (configuration not stated)	inactive: -16.2%
O=C(Cn1c(=O)n(-c2ccccc2)c(=O)c2c3c(sc21)CCCC3)Nc1ccc(F)cc1F	inactive: -23.1%
COc1cccc(CNC(=O)c2cccc(-n3c(C)nc4cccnc43)c2)c1OC	inactive: -12.7%
Cc1cc(=O)n(Cc2ccc(Cl)cc2)c2c1c(C)nn2-c1ccccc1	inactive: -4.77%
COc1ccc(OC)c(S(=O)(=O)NCCS(=O)(=O)N2CCN(c3ccccc3)CC2)c1	inactive: -28.4%
O=C(NCc1noc2ccccc12)N1CCN(c2ccccc2)CC1	inactive: 2.15%
O=C(NCC(c1ccco1)S(=O)(=O)c1cccs1)c1ccc(F)c(F)c1 (configuration not stated)	inactive: 8.98%
CCc1ccccc1NC(=O)N1CCCn2nc(C)cc21	inactive: 0.424%
